Data as given in PubChem BioAssay AID588579 (National Center for Advancing Translational Sciences (NCATS), 2011).
“And” between values parts separate entries of the source, which are not always exact repeats. Equal entries are not always repeated. Screen size: about 400,000 compounds; about 2,200 (0.55%) were called active. The inconclusive results got no clear call from the source; some entries with a clear call stand among them for comparison. Calls come from the whole dose curve; as a rule, active = well fitted inhibition curve with a large enough effect; inconclusive = small, poorly fitted or top-dose-only effect, or another doubt; inactive = no such curve, though single readings can be large or run the other way. Potencies beside an inconclusive call are fits to weak or partial responses and may not hold up.

biological target: DNA polymerase kappa (Homo sapiens) (UniProt Q9UBT6); test: qHTS for Inhibitors of Polymerase Kappa; conditions: purified Pol kappa, fluorescent DNA synthesis assay, 10 min; series mostly up to 107 µM; activity, negative = inhibition: at the top concentration
Sequence of UniProt Q9UBT6 (Q9UBT6 whole entry, looked up): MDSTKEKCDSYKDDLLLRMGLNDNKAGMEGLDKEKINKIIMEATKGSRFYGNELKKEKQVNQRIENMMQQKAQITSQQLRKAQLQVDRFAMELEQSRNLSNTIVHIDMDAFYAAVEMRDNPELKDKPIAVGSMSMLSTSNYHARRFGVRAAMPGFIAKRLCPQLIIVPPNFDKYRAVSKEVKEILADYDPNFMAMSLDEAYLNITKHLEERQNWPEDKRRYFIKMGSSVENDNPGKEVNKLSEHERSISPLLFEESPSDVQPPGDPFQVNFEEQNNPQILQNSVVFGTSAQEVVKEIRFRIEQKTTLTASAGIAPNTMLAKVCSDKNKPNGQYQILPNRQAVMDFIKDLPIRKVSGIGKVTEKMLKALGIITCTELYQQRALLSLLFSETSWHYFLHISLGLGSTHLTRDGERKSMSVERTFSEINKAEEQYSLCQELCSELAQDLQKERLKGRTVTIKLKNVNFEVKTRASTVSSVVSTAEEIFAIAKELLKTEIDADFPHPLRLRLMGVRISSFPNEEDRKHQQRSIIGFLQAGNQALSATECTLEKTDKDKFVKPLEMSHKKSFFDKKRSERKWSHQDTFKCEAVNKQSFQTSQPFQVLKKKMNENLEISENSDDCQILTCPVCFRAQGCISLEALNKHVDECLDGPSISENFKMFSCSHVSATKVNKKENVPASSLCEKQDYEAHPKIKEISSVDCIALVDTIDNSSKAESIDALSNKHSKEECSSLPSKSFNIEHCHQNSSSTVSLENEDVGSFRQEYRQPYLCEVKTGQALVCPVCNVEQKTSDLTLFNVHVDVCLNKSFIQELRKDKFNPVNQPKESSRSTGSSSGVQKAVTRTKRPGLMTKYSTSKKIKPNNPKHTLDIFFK
Summary of the method: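 Readout: fluorescence, taken kinetically at 0 and 10 min. Conditions: 10 nM Pol kappa, 15 min RT compound preincubation, 50 nM substrate final. Controls: enzyme-free buffer wells.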
% is set by controls: 0 for no effect and ±100 for the full control effect; potency is the fitted concentration of half-maximal effect; tags give direction and shape of the fitted curve.

SMILES	Potency	activity, negative = inhibition
O=C(NCC(c1ccco1)N1CCCC1)c1ccc(S(=O)(=O)Nc2ccccc2Cl)cc1 (configuration not stated)	active: 79.4 µM	
CCCCCCCCCCCCOCCOCCOCCOCCO	inconclusive: 35.5 µM [inhibitor, partial curve]	
COC(=O)C(C)(C)c1cccnc1C#N	inconclusive: 79.4 µM [inhibitor, partial curve, poor fit]	
COc1ccc(CCn2nnnc2C2(c3ccc(C)cc3)CC2)cc1	inconclusive: 33.6 µM [inhibitor, partial curve, poor fit]	
CC(NC(=O)CN1c2cccc3cccc(c23)S1(=O)=O)c1ccc(S(N)(=O)=O)cc1 (configuration not stated)	inconclusive: 89.1 µM [inhibitor, single point]	
COc1ccccc1CNc1nc(-c2ccc(N(C)C)cc2)nc2ccccc12	inconclusive: 17.8 µM [inhibitor, partial curve, poor fit]	
CC1CCN(C(=O)Cn2nnnc2CN2CCOCC2)CC1	inconclusive: 89.1 µM [inhibitor, single point]	
COc1cc(/C=N/NC(=O)c2ccc(CSc3nc4ccccc4[nH]3)cc2)ccc1O	inconclusive: 79.4 µM [inhibitor, partial curve, poor fit]	
O=C(CSc1ccsc1[N+](=O)[O-])N1CCN(c2ccccn2)CC1	inconclusive: 100 µM [inhibitor, single point]	
O=C(O)Cc1ccc(NC(=O)c2ccc3c(c2)C(=O)N(Cc2ccco2)C3=O)cc1	inconclusive: 56.2 µM [inhibitor, partial curve, poor fit]	
Cc1ccc(C2=NN3C(C2)c2ccccc2OC32C(=O)Nc3ccccc32)cc1 (configuration not stated)		inactive: -26.1%
COc1ccc(NS(=O)(=O)c2cc(C(=O)N3CCN(C/C=C/c4ccccc4)CC3)ccc2C)cc1		inactive: -4.63%
CC(=O)Oc1cc(C(=O)OCC(=O)NC23CC4CC(CC(C4)C2)C3)cc(OC(C)=O)c1OC(C)=O	active: 17.8 µM	
CCOc1cccc(=O)c2c(C)n(-c3ccc(C(=O)O)cc3)c(C)c12	inconclusive: 89.1 µM [inhibitor, single point]	
COC(=O)C(Cc1c[nH]c2ccccc12)NC(=O)COc1ccc(Cl)cc1Cl (configuration not stated)		inactive: -1.67%
C(=N\C(/N=C/c1ccco1)c1ccco1)/c1ccco1	inconclusive: 89.1 µM [inhibitor, single point]	
O=C(O)c1ccc(OCc2ccc(C(=O)O)o2)cc1		inactive: -6.57%
COc1ccc(C(=O)c2cn(CC(=O)Nc3ccc4c(c3)OCCO4)c3ccc(OC)cc3c2=O)cc1	inconclusive: 100 µM [inhibitor, single point]	
O=C(O)c1ccc(CSc2n[nH]c(-c3ccco3)n2)cc1	active: 44.7 µM	
N#Cc1c(-c2cccs2)nc(SCC(=O)c2ccc(Br)cc2)[nH]c1=O	inconclusive: 89.1 µM [inhibitor, single point]	
CCSc1cc(N2CCCC2)nc(-c2ccc(C)cc2)n1	inconclusive: 100 µM [inhibitor, single point]	
Cc1cc(C=O)c(C)n1-c1ccc(Cl)c(C(=O)O)c1	active: 22.4 µM	
NC(=O)C[C@@H]1NC(=O)[C@H](CCC(=O)O)NC(=O)c2cc([N+](=O)[O-])cc(I)c2OCC[C@@H](C(N)=O)NC1=O	inconclusive: 70.8 µM [inhibitor, partial curve, poor fit]	

SMILES	Potency	activity, negative = inhibition
COC(=O)C1=C(C)N(Cc2ccc(C)cc2)C(=O)/C1=C\c1ccc(O)c(OC)c1		inactive: -15%
COc1cc(-c2nnc(SCC(=O)NCc3ccccc3Cl)o2)cc(OC)c1OC	inconclusive: 89.1 µM [inhibitor, single point]	
Cc1cc(=O)oc2c(CN3CC(C)OC(C)C3)c(O)c(Cl)cc12 (configuration not stated)	inconclusive: 50.1 µM [inhibitor, partial curve]	
COc1cc(C(=O)Nc2ccc3oc(-c4ccc(C)c(Br)c4)nc3c2)cc(OC)c1OC		inactive: 1.88%
O=C(CN1C(=O)COc2ccc(S(=O)(=O)N3CCCCCC3)cc21)NCc1ccc(F)cc1	inconclusive: 100 µM [inhibitor, single point]	
O=C(NCCCN1CCN(c2ccc(F)cc2)CC1)NC12CC3CC(CC(C3)C1)C2		inactive: 0.302%
Cc1cc(N2CCOCC2)nc(-c2ccccc2O)n1		inactive: -4.99%
Cc1cc(C)c2c(CC(=O)N(Cc3ccccc3)C3CCS(=O)(=O)C3)coc2c1 (configuration not stated)		inactive: 9.74%
COC(=O)COc1ccc(C2Nc3c(Cl)ccc(C(=O)O)c3C3C=CCC32)cc1 (configuration not stated)	inconclusive: 50.1 µM [inhibitor, partial curve, poor fit]	
COc1cc2c(cc1OC)CN(C(=O)/C=C/c1ccc([N+](=O)[O-])cc1)CC2		inactive: 4.48%
COc1cccc(C(=O)N2c3cc(C)ccc3C(C)(c3ccccc3)CC2(C)C)c1 (configuration not stated)		inactive: -13.7%
NS(=O)(=O)c1ccc(NC(=O)CSc2nnc(NC3CC3)s2)cc1	inconclusive: 100 µM [inhibitor, single point]	
O=C(c1ccc(=O)oc1)N1CCN(c2ccc(F)cc2)CC1	inconclusive: 79.4 µM [inhibitor, partial curve, poor fit]	
Cc1ccccc1-c1nc2c3ccccc3nc(=S)n2[nH]1	inconclusive: 50.1 µM [inhibitor, partial curve, poor fit]	
Cc1ccc(C)c(N(C(=O)c2csnn2)C(C(=O)NC2CCCCC2)c2cccnc2)c1 (configuration not stated)		inactive: -0.239%
O=C1CCN(CCc2ccccc2)CCN1[C@H](CO)Cc1ccccc1	inconclusive: 89.1 µM [inhibitor, single point]	
O=C(O)CSc1c2c(nc3cc(C(=O)Nc4ccc(F)c(Cl)c4)ccc13)CCC2	inconclusive: 100 µM [inhibitor, single point]	
O=C(Nc1ccc(C(F)(F)F)cc1)C1CCCN(c2cnccn2)C1 (configuration not stated)		inactive: -6.2%
C=C(C)CCOC(=O)C(CC(=O)O)NCc1ccco1 (configuration not stated)	inconclusive: 89.1 µM [inhibitor, single point]	
COc1cc2cncc(Cc3ccccc3)c2cc1O		inactive: -3.34%
COc1cccc(NC(=S)/C(=C(\[O-])c2cc(C)n(-c3ccccc3F)c2C)[n+]2ccc(N(C)C)cc2)c1	inconclusive: 14.1 µM [inhibitor, partial curve, poor fit]	
Nc1ccc2c(c1)OCCOCCOCCOCCOCCO2	inconclusive: 56.2 µM [inhibitor, partial curve, poor fit]	
NNc1cccc(C=Cc2ccccc2)cc1=O	inconclusive: 50.1 µM [inhibitor, partial curve]	

SMILES	Potency	activity, negative = inhibition
CC(=O)c1ccc(NC(=O)CC2Nc3cccc4cccc(c34)NC2=O)cc1 (configuration not stated)	inconclusive: 44.7 µM [inhibitor, partial curve, poor fit]	
CCC(=O)Oc1ccc(C/C(=N\O)c2ccc(O)cc2O)o1	active: 28.2 µM	
CC1=CC2(O)OCCN(CCO)C2=CC1=O (configuration not stated)	inconclusive: 89.1 µM [inhibitor, single point]	
O=C(c1ccc(C(F)(F)F)cc1)N1CCC(=O)N([C@H](COCc2ccc(Cl)cc2)Cc2ccccc2)CC1	inconclusive: 35.5 µM [inhibitor, single point]	
O=C(O)COc1ccc2c(c1)O/C(=C\c1ccco1)C2=O	active: 79.4 µM	
COc1ccc(NC(=O)c2cc(-c3ccco3)nc3ccccc23)cn1	inconclusive: 56.2 µM [inhibitor, partial curve, poor fit]	
COc1ccc(NS(=O)(=O)c2cccc(C(=O)NNC(=O)c3cccn3C)c2)cc1	inconclusive: 100 µM [inhibitor, single point]	
COc1ccc(OC)c(CCNC(=O)Cn2nc(C)c3c(C)n(-c4ccc(C)cc4)nc3c2=O)c1	inconclusive: 100 µM [inhibitor, single point]	
O=C(Nc1nc(-c2ccc(Cl)cc2)cs1)NC1CCCCC1		inactive: -8.46%
O=C1COc2ccc(C(=O)COC(=O)c3ccccn3)cc2N1		inactive: -6.58%
CCC(C(=O)NCc1ccco1)n1nc(-c2ccc(OC)cc2)ccc1=O (configuration not stated)	inconclusive: 89.1 µM [inhibitor, single point]	
CCOc1cc(-c2ccc3c(c2)OCO3)cc(=[O+]CC)c2c(C)oc(C)c12	active: 28.2 µM and active: 50.1 µM	
COc1cccc2c1C(=O)c1c(O)c3c(c(O)c1C2=O)C[C@](O)(C(C)=O)C[C@H]3O[C@@H]1C[C@@H](N)[C@@H](O)[C@@H](C)O1	active: 35.5 µM	
COC(=O)CCCC1=CC2=CC(=O)C(C)(OC(=O)c3cccs3)C(=O)C2=CN1CCCCO (configuration not stated)		inactive: -7.26%
C#Cc1ccc(C(=O)NCc2ccc(N3CCCC3=O)cc2)cc1	inconclusive: 89.1 µM [inhibitor, single point]	
CCn1c(=O)cc(SCC(=O)N2CCN(c3cc(C)ccc3C)CC2)c2ccccc21		inactive: -6.39%
CSc1nc(N(C)CCO)c2sc3nc(-c4ccco4)c4c(c3c2n1)CCC4	inconclusive: 8.91 µM [inhibitor, full curve, poor fit]	
O=C(O)c1ccc(CNc2ccccc2C(=O)O)cc1	inconclusive: 79.4 µM [inhibitor, partial curve, poor fit]	
O=C(O)c1ccc(Nc2ccc3nonc3c2[N+](=O)[O-])cc1		inactive: -7.85%
CCc1nnc(NS(=O)(=O)c2ccc(NC(=S)NC(=O)c3ccc(OC)cc3)cc2)s1	inconclusive: 100 µM [inhibitor, single point]	
CCOC(=O)C1=C(CSc2nc3c(cc2C#N)CN(C)CC3)OC(N)=C(C#N)C1c1ccc(Cl)cc1 (configuration not stated)	inconclusive: 79.4 µM [inhibitor, partial curve, poor fit]	
